In the supplement of paper PMC8674133:
Recombinant human monoclonal antibodies (heavy:light variable regions). ELISA EC50 on the named antigen, from 10 µg/ml down; IC50 / IC90 against spike pseudovirus on 293T-ACE2 cells, 48 h; lower = stronger. Calls: IC50 above 1,000 ng/ml = non-neutralizing; EC50 above 2,000 ng/ml = non-binder. The source prints 1000 for neutralization that was not reached; it is given as >1000 ng/ml. A few antibodies were first reported in earlier work of the same group.

B1: C1332 (protein)
chain 1: VQLVESGGGVVQPGRSLRLSCAASGFTFSSYGMHWVRQAPGKGLEWVAVISYDGSNKYYADSVKGRFTISRDNSKNTLYMQMNSLRAEDTAVYYCAKAPRGYYDRSGYYRIQDNFDYWGQGTLVTVSS
chain 2: AIRMTQSPSSLSASVGDRVTITCRASQGISSALAWYQQKPGKAPKLLISDASSLESGVPSRFSGSGSGTDFTLTISSLQPEDFATYYCQQFNGYPLTFGGGTKVEIK
B2: C1333 (protein)
chain 1: VQLVESGGGVVQPGRSLRLSCAASGFTFSSYGMHWVRQAPGKGLEWVAVISYDGSNKYYADSVKGRFTISRDNSKNTLYLQMNSLRTEDTAVYYCARGWFGEEVGYYYFGLDVWGQGTTVTVSS
chain 2: QSVLTQPPSVSGAPGQRVTISCTGSSSNIGAAYDVHWYQQLPGTAPKLLIYGNSNRPSGVPDRFSGSKSGTSASLAITGLQAEDEADYYCQSYDSSLSGWVFGGGTKLTVL
B3: C1334 (protein)
chain 1: EVQLVESGAEVKKPGESLKISCKGSGYSFTSNWIGWVRQMPGKGLEWMGIIYPGDSDTRYSPSFQGQVTISADKSISTAYLQWSSLKASDTAMYYCARTYGSGSYSDFDYWGQGTLVTVSS
chain 2: QSVLTQPPSASGTPGQRVSISCSGSSSNIGSNTVNWYQQLPGTAPKLLIYNNNQRPSGVPDRFSGSKSGTSASLAISGLQSEDEADYYCAAWDDSLNGRGVFGGGTKLTVL
B4: C1335 (protein)
chain 1: EVQLVQSGAEVKKPGESLKISCKGSGYSFTSCWIGWVRQMPGKGLEWMGIIWPGDSDTRYSPSFQGQVTISVDKSISTAYLQWSSLQASDTAMYYCARSETYVMPPDYWGQGTLVTVSS
chain 2: QSVLTQPPSASGTPGQRVTISCSGSSSNIGSNAVNWYRQLPGTAPKLLIYNNYQRPSGVPDRFSGSKSGTSASLAISGLQSEAEADYYCAAWDDSLNGWVFGGGTQLTVL
B5: C2016 (protein)
chain 1: EVQLLESGGGLVQPGGSLRLSCAASGFTFSSYAMSWVRQAPGKGLEWVSGISSSGGRTYHADSVKGRFTISRDNSKNTLYLQMNSLRAEDTAVYYCTLGSGSSSLGNNYWGQGTLVTVSS
chain 2: QTVVTQEPSLTVSPGGTVTLTCGSSTGAVTRGHYPYWFQQRPGQAPRTLIYDTSNKHSWTPARFSGSLLGAKAALTLSGALPEDEADYFCSLSYSGAHVVFGGGTKLTVL
B6: C1336 (protein)
chain 1: QVQLVESGGGVVQPGRSLRLSCAASGFTFRSFGMHWVRQAPGKGLEWVAVIWYDGSNKYYADSVKGRFTISRDNSKNTLYLHMNSLRAEDTAVYYCARDGPANQVDEQLFTITDYYYGMDVWGQGTTVTVSS
chain 2: QSALTQPASVSGSPGQSITISCTGTSSDVGGYNYVSWYQHHPGKAPKLMIYEVSNRPSGVSNRFSGSKSGNTASLTISGLQAEDEADYYCSSYTSSSTYVFGTGTKVTVL
B7: C1337 (protein)
chain 1: EVQLVESGGGLVQPGRSLRLSCAASGFTFDDYAMHWVRQGPGKGLEWVSGISWNSGTIGYADSVKGRFTISRDNAENSLYLQMNSLRPEDTALYYCVKDYHSVRYCSSTSCYRALDDYYGMDVWGQGTTVTVSS
chain 2: QSVLTQPPSVSGAPGQRVTISCTGSSSNIGAGYDVHWYQQLPGTAPQLLIYANINRPSGVPDRFSGSKSGTSASLAITGLQAEDEADYYCQSYDSSLSGSRVVFGGGTKLTVL
B8: C1338 (protein)
chain 1: EVQLVETGGGLIQPGGSLRLSCVASGVTVSSNYMNWVRQAPGKGLEWVSVIYSGGSTFYADSVKGRFTISRDNSKNTLYLQMNSLRAEDTAVYYCARADDSDAFDIWGQGTMVTVSS
chain 2: DIQMTQSPSTLSASVGDRVTITCRASQSISNWLAWYQQKPGKAPKFLIHKASSLESGVPSRFSGSGSGTEFTLTISSLQPDDFATYYCQQYNNYPRTFGQGTKVEIK
B9: C1341 (protein)
chain 1: EVQLVESGGGLVQPGGSLRLSCAASGFTVSSNYMTWVRQAPGKGLEWVSVIYSGGSTYYADSVKGRFTISRDSSKNTLYLQMNSLRVEDTAVYYCASLEQLTYYFDYWGQGTLVTVSS
chain 2: SYELTQPPSVSVAPGKTARITCGGNNIGSKSVHWYQQKPGQAPVLVVYDDSDRPSGIPERFSGSNSGNTATLTISRVEAGDEADYYCQVWDSFIDRHAWVFGGGTKLTVL
B10: C1344 (protein)
chain 1: EVQLVESGGGLIQPGGSLRLSCAASGFTVSSNYMSWVRQAPGKGLEWVSIIYSGGSTFYADSVKGRFTISRDSSKNTLYLQINSLRAEDTAVYYCARDVPRNSGGYWGQGTLVTVSS
chain 2: IRMTQSPSSLSASVGDRVTITCQASQDISNYLNWYQQKPGKAPKLLIYDASNLETGVPSRFSGSGSGTDFTFTISSLQPEDIATYYCQQYDNLPITFGQGTRLEIK
B11: C1345 (protein)
chain 1: EVQLVESGGGLVQPGRSLRLSCAASGFTFDDYAMHWVRQAPGKGLEWVSGISWNSGSIGYADSVKGRFTISRDNAKNSLYLQMNSLRAEDTALYYCATQHIRFLEWGRDELYSGMDVWGQGTTVTVSS
chain 2: IRMTQSPSSLSASVGDRVTITCRASQGISNYLAWYQQKPGKVPKLLIYAASTLQSGVPSRFSGSGSGTDFTLTISSLQPEDVATYYCQKYNSAPFTFGPGTKVDIK
B12: C1346 (protein)
chain 1: QVQLQESGPGLVKPSDTLSLTCTVSGDSIKNYYWNWIRQPPGKRLEWIASVYYSGTTKYTPSLKSRATITIDTSKNQFSLTLKSFSAADTAVYFCARSPAWTRDYQFDQWGQGTLVTVSS
chain 2: SYELTQPPSVSVSPGQTARITCSGDALPRRFAYWYQQKSGQAPVMIIYEGSKRPSGIPERFSGSSSGTVATLTITGAQVEDEADYFCYSRDDSDDYRVFGGGTKLTVL
B13: C1347 (protein)
chain 1: VQLVESGGGVVQPGRSLRLSCAASGFTFSNYGMHWVRQAPGKGLEWVAVISYDGSNKYYADSVKGRFTISRDNSKNTLYLQMNSLRAEDTAVYYCAKGHDFGAPDYWGQGTLVTVSS
chain 2: QSALTQPASVSGSPGQSITISYTGTSSDVGSYNLVSWYQQHPGKAPKLMIYEGSKRPSGVSNRFSGSKSGNTASLTISGLQAEDEADYYCCSYAVSSTYVFGTGTEVTVL
B14: C2017 (protein)
chain 1: QVQLVQSGAEVKKPGASVKVSCKASGYTFTSYDINWVRQATGQGLEWMGWMNPNSGNTGYAQKFQGRVTITRNTSISTAYMELSSLRSEDTAVYYCARGTYCSSTSCYTRDWFDPWGQGTLVTVSS
chain 2: SYELTQPPSVSVAPGQTARITCGGNNIGSKSVHWYQQKPGQAPVLVVYDDSDRPSGIPERFSGSNSGNTATLTISRVEAGDEADYYCQVWDSSSDPYYVFGTGTKVTVL
B15: C1371 (protein)
chain 1: QLQLQESGPGLVKPSETLSLTCTVSGGSISSGAYYWGWIRQPPGKGLEWIGNIYYSGSTYYNPSLKTRVTISLDTSKNQFSLKLNSVTAADTAVYYCARQNGLCDYWGQGTLVTVSS
chain 2: DIQMTQSPSSLPASVGDRVTITCRASQGISNSLAWYQQNPGKAPKLLVYAASTLESGVPSRFSGSGSGTDFTLTISSLQPEDFATYYCQQYYSPPPLTFGQGTKLEIK
B16: C1372 (protein)
chain 1: QVQLQESGPGLVKPSETLSLTCTVSGGSISSYYWSWIRQPPGKGLEWIGYIYYSGSTNYNPSLKSRVTISVDTSKNQFSLKLSSVTAADTAVYYCARGGSTLWFGSEPNFDYWGQGTLVTVSS
chain 2: NFMLTQPHSVSESPGKTVTISCTCSSGSIASNYVQWYQQRPGSSPTTVIYEDNQRPSGVPDRFSGSIDSSSNSASLTISGLKTEDEADYYCQSYDSSNVVFGGGTKLTVL

Each binder was assayed against SARS-CoV-2 Wuhan-Hu-1 spike pseudovirus (assay: pseudovirus neutralization IC50; higher = weaker neutralization).
Description: (§1)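 Single-round luciferase reporter pseudovirus mixed with antibody dilutions and put on 293T-ACE2 cells for 48 h; signal relative to no-antibody wells, four-parameter fit.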

Binder	pseudovirus neutralization IC50 [µg/mL]
B1	0.00868
B2	0.155
B3	0.214
B4	0.0424
B5	> 1
B6	> 1
B7	0.0443
B8	> 1
B9	0.658
B10	0.0181
B11	> 1
B12	> 1
B13	0.00305
B14	> 1
B15	0.00505
B16	> 1

These binders were tested against SARS-CoV-2 Wuhan-Hu-1 spike pseudovirus (assay: pseudovirus neutralization IC90; higher = weaker neutralization).
Description: as §1

Binder	pseudovirus neutralization IC90 [µg/mL]
B1	0.111
B2	> 1
B3	> 1
B4	> 1
B5	> 1
B6	> 1
B7	> 1
B8	> 1
B9	> 1
B10	0.0895
B11	> 1
B12	> 1
B13	0.0368
B14	> 1
B15	0.0298
B16	> 1

The binders below were run against SARS-CoV-2 Wuhan-Hu-1 spike receptor-binding domain (assay: ELISA binding EC50; higher = weaker binding; ELISA of recombinant human antibody on coated antigen, from 10 µg/ml in fourfold dilutions; four-parameter fit.).

Binder	ELISA binding EC50 [µg/mL]
B1	0.00236
B2	0.00289
B3	0.00316
B4	0.00261
B5	0.0145
B6	0.00355
B7	0.00123
B8	> 10
B9	0.0014
B10	0.00262
B11	0.0022
B12	> 10
B13	0.00113
B14	0.00189
B15	0.00178
B16	0.00143
